Laboratory results as given in the RNAGym collection of RNA variant scans (doi:10.7554/elife.90254).
Read counts are not given, so values of variants with three or more changes are uncertain.

B1: LINE1-mini (parent)
chain: GGCAGAGCUCAACACAGCGUGGCAAAGUGGCUGUGGCUAGACUGCC

Variants of: B1
Test: self-cleavage, relative activity (ratio to wild type); higher = more cleavage; in vitro, sequencing; the parent is a self-cleaving ribozyme

| Variant | self-cleavage |
| --- | --- |
| A16U G27C A39C C42A | 0.07 |
| A16U G27C C31U U32A C37G | 0.02 |
| A16U G27C G35A | 0.17 |
| A16U G27C G36C C45A | 0.02 |
| A16U G27U C31U | 0 |
| A16U G27U C42G | 0.04 |
| A16U G27U C46A | 1.47 |
| A16U G29A A41G | 0.15 |
| A16U G29A G33C G35A | 0.03 |
| A16U G29A U38A | 0.25 |
| A16U G29C U32G | 0.59 |
| A16U G29C U43A | 0.02 |
| A16U G29U A39C | 0.18 |
| A16U G29U C42A | 0.25 |
| A16U G29U G30A G40C | 0.23 |
| A16U G29U U32A | 0.1 |
| A16U G30A C37A | 0.1 |
| A16U G30A G36C | 0.09 |
| A16U G30A G36C C45U | 0.04 |
| A16U G30A U34A G40U | 0.02 |
| A16U G30U C37A | 0.02 |
| A16U G30U G36C G44A | 0.03 |
| A16U G30U G36U | 0.11 |
| A16U G33A U43A | 0.07 |

| Variant | self-cleavage |
| --- | --- |
| A16U G33C G35U G36A C42G | 0.02 |
| A16U G33C U43A C46G | 0.02 |
| A16U G35A U43A | 0 |
| A16U G35C G40U | 0.1 |
| A16U G35U A39C G40U | 0.02 |
| A16U G36C G40A C46A | 0.05 |
| A16U G36C G40C G44U | 0 |
| A16U G36U U43A | 0.02 |
| A16U G40U C46U | 0.05 |
| A16U G40U U43A C46A | 0.05 |
| A16U G44U C46A | 0.02 |
| A16U U20A C31A A39C U43A | 0.02 |
| A16U U20A G21C U34C G40A | 0.03 |
| A16U U20C A25G G29A | 0.02 |
| A16U U20C G21C A39G | 0.02 |
| A16U U20C G33A U34G C42A | 0 |
| A16U U28A U34A C46G | 0.01 |
| A16U U28C G33A | 0.07 |
| A16U U28G A39G | 0 |
| A16U U28G C42U | 0.05 |
| A16U U28G G35A C37A | 0.02 |
| A16U U32A G33C A39U G44A | 0.01 |
| A16U U32G G33U | 0.01 |
| A16U U32G G33U G40C | 0.01 |

| Variant | self-cleavage |
| --- | --- |
| A16U U34A C37A U43C | 0.01 |
| A16U U34A G40U | 0.07 |
| A16U U38A G40U | 0.03 |
| A16U U38A G44U | 0.03 |
| A16U U38A U43G C45U | 0.03 |
| G17A A24C G29C | 0.02 |
| G17A A24C G33C C37U | 0.02 |
| G17A A24C U34A | 0.06 |
| G17A A24G G35A A39G | 0.03 |
| G17A A24U A26C G44U | 0.04 |
| G17A A24U G40U | 0.04 |
| G17A A25C G27A | 0.28 |
| G17A A25C G27U G33C A41U | 0.25 |
| G17A A25C G40C | 0.02 |
| G17A A25G G27U C37G A39G | 0.01 |
| G17A A25G G33U | 0.02 |
| G17A A25U G29U | 0.09 |
| G17A A25U G35U | 0.07 |
| G17A A25U G36A A39C | 0.06 |
| G17A A25U U28C U32C G33U | 0.1 |
| G17A A25U U28G G29U U34G | 0.01 |
| G17A A25U U38A | 0.1 |
| G17A A26C G36C | 0.03 |
| G17A A26G C31A G35A A39C | 0.02 |

| Variant | self-cleavage |
| --- | --- |
| G17A A26G G29U G35U | 0.02 |
| G17A A26G U28C | 0.74 |
| G17A A26G U32A G36C | 0 |
| G17A A26U G30C G35A U43A | 0.04 |
| G17A A26U U34A C45U | 0.03 |
| G17A A41U G44C | 0.03 |
| G17A C18A A24G A25G U28A G30A U32A G33A G36A | 0.06 |
| G17A C18A A26U C31A | 0.03 |
| G17A C18A C31G | 0.03 |
| G17A C18A G19C G36U G44C | 0.02 |
| G17A C18A G22A G30U | 0.05 |
| G17A C18A G27U G30C | 0.23 |
| G17A C18A G30U | 0.12 |
| G17A C18A G44A | 0.05 |
| G17A C18A U20A A41G | 0.01 |
| G17A C18A U20A G21U | 0.12 |
| G17A C18A U32A | 0.04 |
| G17A C18A U32A A41G | 0.02 |
| G17A C18A U38C | 0.08 |
| G17A C18G G27U U43A | 0.09 |
| G17A C18G G33U G40A | 0.02 |
| G17A C18G U20A | 0.08 |
| G17A C18G U28C G29A U34A U43C | 0.07 |
| G17A C18U A26C | 0.01 |

| Variant | self-cleavage |
| --- | --- |
| G17A C18U A39C | 0.04 |
| G17A C18U G27U G44U C45U | 0.03 |
| G17A C18U G33U C37A | 0.18 |
| G17A C23A A41C U43A | 0.01 |
| G17A C23A C31U G36U | 0.03 |
| G17A C23G G27U G36C C42G | 0 |
| G17A C23G U34G C46A | 0.01 |
| G17A C23U A26C C45A | 0.14 |
| G17A C23U G36A | 0.07 |
| G17A C23U U32G | 0.15 |
| G17A C23U U38G | 0.05 |
| G17A C23U U38G C46U | 0.02 |
| G17A C31A C46A | 0.07 |
| G17A C31A G33C G35U U43C | 0.03 |
| G17A C31A G33U | 0.08 |
| G17A C31G G33U G40U | 0.02 |
| G17A C31G U34G G40U | 0 |
| G17A C31U G33U U34G G36U U43A | 0.01 |
| G17A C37A A41U | 0 |
| G17A C37A C42U | 0.04 |
| G17A C37U G44C | 0.03 |
| G17A C37U U43A | 0.14 |
| G17A G19A A24C | 0.08 |
| G17A G19A A24C G36C | 0.01 |

| Variant | self-cleavage |
| --- | --- |
| G17A G19A A24G A26C U28A U32C | 0.04 |
| G17A G19A C31A U38G | 0 |
| G17A G19A U34C G40U A41U | 0.08 |
| G17A G19C A25G U32C | 0.02 |
| G17A G19C C31A U38G | 0.01 |
| G17A G19C G27C | 0.42 |
| G17A G19U C23U A26U U34G G35U | 0.04 |
| G17A G19U C31A | 0.15 |
| G17A G19U C45A | 0.04 |
| G17A G19U C46G | 0.19 |
| G17A G19U G29U | 0.01 |
| G17A G19U G33U | 0.02 |
| G17A G19U G36U A39G C42G | 0.02 |
| G17A G19U U20A A39U | 0.08 |
| G17A G21A A24U C31A C42U G44U | 0.07 |
| G17A G21A C42G | 0.01 |
| G17A G21A G27U C37U | 0.31 |
| G17A G21A G33A C37G | 0.05 |
| G17A G21A G36U C37A G40A | 0.12 |
| G17A G21A U28G | 0.11 |
| G17A G21A U34G | 0 |
| G17A G21C C31A A39C U43A | 0 |
| G17A G21C G29C | 1.27 |
| G17A G21U A39C | 0.03 |

| Variant | self-cleavage |
| --- | --- |
| G17A G21U C45A | 0.04 |
| G17A G21U U32A G33U C37A | 0.02 |
| G17A G21U U38A | 0.18 |
| G17A G22A C37A C45G | 0.06 |
| G17A G22A G30A | 0.45 |
| G17A G22A G30C U34A G40A | 0.01 |
| G17A G22C A41G | 0.02 |
| G17A G22C C23G | 0.81 |
| G17A G22C C23G G27C G30U U34A A39G | 0.01 |
| G17A G22C G35A | 0.02 |
| G17A G22C G35U U38G | 0.01 |
| G17A G22C U38C U43C | 0.02 |
| G17A G22U C23A | 0.11 |
| G17A G22U G30U C37A | 0.04 |
| G17A G27A G40U | 0.05 |
| G17A G27C C37U | 0.1 |
| G17A G27C G36C C45G | 0.03 |
| G17A G27C G40A | 0.04 |
| G17A G27C U32A G33A G35U | 0.03 |
| G17A G29A C45G | 0.09 |
| G17A G29C C45G | 0.3 |
| G17A G29C G40U C46U | 0.09 |
| G17A G29C G44A C46A | 0.11 |
